Consider 2 substances from PMC11584650, “An inhibitory segment within G-patch activators tunes Prp43-ATPase activity during ribosome assembly” (Nature Communications, 2024).

Chains of the proteins cited; added tags and fusions are not shown.
UniProt P53131: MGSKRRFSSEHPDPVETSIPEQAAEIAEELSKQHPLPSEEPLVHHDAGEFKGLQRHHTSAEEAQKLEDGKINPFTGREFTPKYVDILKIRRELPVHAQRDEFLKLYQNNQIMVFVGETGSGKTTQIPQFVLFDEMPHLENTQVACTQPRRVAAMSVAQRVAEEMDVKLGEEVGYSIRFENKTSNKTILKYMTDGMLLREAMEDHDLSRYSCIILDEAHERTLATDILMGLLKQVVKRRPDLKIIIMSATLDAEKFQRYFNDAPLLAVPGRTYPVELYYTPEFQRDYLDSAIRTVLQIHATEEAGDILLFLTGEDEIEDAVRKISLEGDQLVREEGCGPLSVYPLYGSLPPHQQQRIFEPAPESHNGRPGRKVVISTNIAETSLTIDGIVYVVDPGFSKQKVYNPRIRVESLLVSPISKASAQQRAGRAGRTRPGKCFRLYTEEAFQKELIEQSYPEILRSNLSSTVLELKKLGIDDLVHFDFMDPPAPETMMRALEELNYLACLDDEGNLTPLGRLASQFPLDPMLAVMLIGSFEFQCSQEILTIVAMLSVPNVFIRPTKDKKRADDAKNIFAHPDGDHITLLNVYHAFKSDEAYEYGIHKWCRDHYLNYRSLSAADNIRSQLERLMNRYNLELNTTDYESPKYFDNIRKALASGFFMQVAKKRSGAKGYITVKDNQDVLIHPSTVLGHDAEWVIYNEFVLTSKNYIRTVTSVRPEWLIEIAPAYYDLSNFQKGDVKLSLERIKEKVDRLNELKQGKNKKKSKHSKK

No constants are given. Whether binding was seen depends on the method and setting. For part of these data: Binding seen in cells or lysates may run through a third protein. Some results given as binding are weak or reduced against the parent protein; the word gives no strength. For part of these data: Tags and fused reporters may be left off the sequences shown.

Test [1] has as its target T1, GST-Pfa1^G (S. cerevisiae) (UniProt P53866).
T1 sequence: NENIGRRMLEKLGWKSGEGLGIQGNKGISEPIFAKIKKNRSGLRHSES
As to the kind of experiment: pull-down; GST-tagged variants co-expressed with His6-Prp43 in E. coli; lysate on Glutathione Sepharose 4 Fast Flow beads, 25 mM Tris-HCl pH 7.5, 150 mM NaCl, 5 mM MgCl2, 10% glycerol, 0.1% NP-40, 4 °C; eluted with LDS buffer, Coomassie staining.

Test [2] has as its target T2, Pxr1^GM (recombinant, co-expressed with Prp43) (S. cerevisiae) (UniProt P53335).
T2 sequence: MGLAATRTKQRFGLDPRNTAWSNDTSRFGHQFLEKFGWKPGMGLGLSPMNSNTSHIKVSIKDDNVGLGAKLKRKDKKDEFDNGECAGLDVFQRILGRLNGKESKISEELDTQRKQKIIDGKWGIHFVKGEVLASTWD
Described as above.

The target of a further test is T3, Pxr1-TAP (S. cerevisiae) (UniProt P53335).
T3 sequence: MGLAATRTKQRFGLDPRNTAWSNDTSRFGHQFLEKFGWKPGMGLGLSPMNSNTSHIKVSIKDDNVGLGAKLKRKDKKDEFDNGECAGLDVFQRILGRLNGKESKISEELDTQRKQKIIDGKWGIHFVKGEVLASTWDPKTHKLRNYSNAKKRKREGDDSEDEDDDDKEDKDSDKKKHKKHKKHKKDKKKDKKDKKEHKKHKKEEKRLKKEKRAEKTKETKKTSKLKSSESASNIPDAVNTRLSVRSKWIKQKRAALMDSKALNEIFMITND
As to the kind of experiment: tandem affinity purification with Western blotting; Tma23-TAP and Pxr1-TAP purified from yeast lysate (IgG Sepharose, TEV elution, Calmodulin Sepharose); eluates blotted with antibodies against Tma23, Pxr1 and Prp43. In general terms: In western blotting, separated proteins are transferred to a membrane and probed.

For “His6-Prp43 (from UniProt P53131 1-767) (enzyme)”, the binding entry in test [1] and in test [2] was “binds” in each case.
In the case of “Prp43 (from UniProt P53131 1-767) (enzyme)”, the binding entry in the test with Pxr1-TAP (S. cerevisiae) is “binds”.
